Test results as given in ChEMBL document CHEMBL4888484, “Replenishing the malaria drug discovery pipeline: Screening and hit evaluation of the MMV Hit Generation Library 1 (HGL1) against asexual blood stage Plasmodium falciparum ,using a nano luciferase reporter read-out” (2022).
Screen size: about 150,000 compounds; about 540 (0.36%) showed an effect of 50% or more. The list shows a part of the results.

What follows are molecules tested on Plasmodium falciparum (assay: Primary screen in NF54 nanoGlo assay, in single point, at 2uM, 72h; a lower Z score goes with more inhibition). Conditions: timepoint 72 hour.
Format: functional, Erythrocyte

SMILES	% Inhibition	Z score
COC(=O)C1CCC(C(=O)NC(C)c2nc(-c3cccnc3)cs2)O1 (stereo not given)	-6%	0.71
Cn1c(CCNC(=O)[C@@H]2CNCCO2)nc2ccc(F)cc21	0%	-0.01
O=C(NCc1nc2ccccc2s1)c1ccco1	-6%	0.84
CCn1cc(-c2n[nH]cc2C(=O)N(C)CC(C)(C)CO)cn1	-5%	0.67
COc1ccc(CN2C(=O)N[C@@H](CC(=O)Nc3cnn(C)c3)C2=O)cc1	2%	-0.23
CCOc1ccc(-c2ccnc(N3CCN4CCC[C@H]4C3)n2)cc1C(=O)O	2%	-0.18
COCCC1(C(=O)N2CCC[C@H](C(=O)N3CCCC3)C2)CCCC1	1%	-0.1
Cn1cnc(C(=O)N2CCC(Cc3ccc(CN4CCCC4)cc3)CC2)c1	-12%	2.39
Cc1ccsc1C(Cc1ccccc1)NC(=O)NC1COCC1O (stereo not given)	34%	-3.84
CC1CN(CC(=O)Nc2ncc(Cc3c(Cl)cccc3Cl)s2)CC(C)O1 (stereo not given)	-8%	1.18
O=C(N[C@@]1(CO)CCOC1)c1cc(-c2ccncc2)on1	10%	-1.33
c1ccc(-c2nc(-c3cccs3)[nH]c2-c2ccccc2)cc1	10%	-1.25
CC(C)c1ncsc1C(=O)NCc1ncc(C(C)(C)C)o1	-4%	0.69
C[C@@](CO)(NC(=O)Cn1ccccc1=O)C1CCCCC1	-13%	1.27
O=C(Nc1ccccc1C(=O)N1CCN(Cc2ccccc2)CC1)c1cccs1	18%	-2.28
CC1=C(CCN2CCC(CCC(=O)NCc3cccnc3)CC2)C(C)(C)CCC1	-9%	1.49
CN(Cc1ccccc1)C1(C(=O)N2CCNC(=O)C2)Cc2ccccc2C1	-15%	2.87
Cc1cc(C)c2c(c1)c(C)cc(=O)n2CC(=O)N1CCOCC1	-8%	1.13
O=C(NCc1cccnc1-c1ccsc1)[C@@H]1CCCO1	0%	-0.03
COc1ccc(CCNC(=O)c2cc3n(n2)CCN(Cc2cccc(Cl)c2)C3=O)cc1OC	-1%	0.15
Cc1nnc([C@@H]2CCCCCN2S(=O)(=O)c2ccccc2C)o1	-15%	2.78
CN(C)C(=O)CN(Cc1csc(-c2ccoc2)n1)c1ccccc1	3%	-0.31

SMILES	% Inhibition	Z score
O=C(c1ncccc1O)N1CCc2[nH]c(-c3cccnc3)nc2C1	-14%	1.25
Cc1ccccc1CNC(=O)c1ccc(-n2ccc3ccccc32)s1	1%	-0.17
O=C(Cc1cccc2ccccc12)Nc1nnc(-c2cc(Cl)ccc2Cl)o1	-4%	0.67
CN(C)c1ccc(NC(=O)C2CCOCC2)cn1	0%	0
Cc1noc(C)c1[C@@H](C)CNC(=O)c1csc(C(C)(C)C)n1	-17%	3.2
COCCOCc1nc(C2CCN(C(=O)Cc3ccccc3)CC2)no1	0%	-0.04
CCOC(=O)[C@H](NC(=O)c1ccc(C2(C#N)CC2)cc1)c1c(C)nn(-c2ccccc2)c1C	-8%	1.48
Cc1ccc2nc(NC(=O)Cn3ncccc3=O)sc2c1	-16%	1.87
CC(C)CN1CC[C@H](N2CCN(c3cccc(C(F)(F)F)c3)CC2)[C@H](CCC(=O)NCCO)C1	7%	-0.9
Fc1cccc(-n2cc(-c3nc4c(cnn4Cc4ccncc4)[nH]3)cn2)c1	-8%	1.15
Cc1ccc(-c2cc(C(=O)NCc3ccc(F)cc3)ccn2)s1	-13%	1.72
COc1ccc(-c2cnc3ncnn3c2N2CCN(S(=O)(=O)c3ccccc3OC(F)(F)F)CC2)cc1OC	-12%	1.19
Cn1cc(C=Cc2ccncn2)c(-c2ccc(C#N)cc2)n1	7%	-0.92
CC(Cn1ncc2ccccc2c1=O)NS(=O)(=O)CC1CCOC1 (stereo not given)	31%	-3.46
Cc1cc(NC(=O)CCc2c(C)noc2C)n(-c2ncnc3nc[nH]c23)n1	2%	-0.33
CNC(=O)NCC(=O)N1CCC(c2cc(C)ccc2C)CC1	-5%	0.74
CC(=O)Nc1nc2ccc(NC(=O)NC[C@H]3CCCO3)cc2s1	-4%	0.61
Cc1cc(C)c(C(=O)N2CC[C@@]3(CCCN(CCCc4ccccc4)C3)C2)c(=O)[nH]1	2%	-0.28
N#CC1(OC(=O)C2CC3CCC2C3)CCC1 (stereo not given)	-8%	0.86
COc1ccc(F)cc1-c1ccc2nc(N)sc2c1	11%	-1.48
O=c1[nH]nc2ccc(N3CC4CCC3C4)nn12 (stereo not given)	-3%	0.54
CN(CC1(C)COC1)C(=O)c1ccc(CO)cc1	-3%	0.37

SMILES	% Inhibition	Z score
Cc1c(Cl)cc(C(=O)N(C)C2CCS(=O)(=O)CC2)cc1Cl	-14%	1.76
Cc1ccc2c(c1)C(NC(=O)N(C)Cc1cccnc1)C(C)C2 (stereo not given)	-13%	1.69
COc1cccc(CN2CC=C(C(=O)N3CCN(c4ccccn4)CC3)CC2)c1	-11%	1.66
CC(C)c1ccc(-c2cc(C(F)(F)F)n3nc(C(=O)N4N=C5/C(=C/c6ccc(Cl)cc6)CCCC5C4c4ccc(Cl)cc4)cc3n2)cc1 (stereo not given)	-31%	3.66
CCN(C(=O)CCn1nnc2ccccc2c1=O)c1ccc2[nH]ccc2c1	-2%	0.25
Cn1nnc2c(N3CC(C(=O)NC4CCCCCC4)C3)ncnc21	-6%	0.88
CC(C)(C)c1ccc(C(=O)C(=O)N2CCCN(C3CC3)CC2)cc1	-9%	0.84
COc1nn(C)cc1NC(=O)NCc1cccc(Cl)c1OC	-1%	0.09
Cc1ccsc1[C@@H](O)CNC(=O)CN1C(=O)CCC1=O	-14%	2.35
COc1cc(OC)cc(C(=O)N2CCN(c3cc(N4CCN(C)CC4)ncn3)CC2)c1	-23%	2.01
CC(C)=CCN1CCC(NC(=O)C(=O)Nc2cc(C)ccc2F)CC1	-14%	1.75
Cc1cnn(C2CN(CCOCC(F)(F)F)C2)c1	0%	0.06
O=c1[nH]nc([C@H]2CCCN(S(=O)(=O)N3CCCC3)C2)n1-c1ccccc1	-7%	0.92
CCN(CC)C(=O)Cn1cc(C(=O)NCCOc2ccccc2)nn1	-20%	1.76
C[C@@H](c1ccc(F)cc1)n1c(CN2CCN(C)CC2)n[nH]c1=O	-5%	1
O=c1ccccn1CCN1CCN(C[C@H](O)c2ccccc2F)CC1	1%	-0.13
CC(=O)N1CC[C@H](CN(C)Cc2csc(-c3ccc(S(C)(=O)=O)cc3)n2)C1	-3%	0.23
CCCN(CCC)C(=O)CN1CCN(Cc2ccc3c(c2)CCO3)CC1	-11%	1.43
CN(C)C1(CNC(=O)CCC(F)(F)F)CCCC1	-24%	2.12
N#CCOc1cccc(Cl)c1Cl	-6%	0.93
O=C(CCN1CCc2ccccc21)Nc1ccc2c(c1)OCCO2	-9%	1.71
NC(=O)c1cccnc1N1CCC(Oc2ccc3ccccc3c2)(C(=O)O)CC1	-4%	0.73

SMILES	% Inhibition	Z score
CCC[C@H]1CN(c2nc3c(cc2C(=O)O)CCC3)C[C@@H]1N	-3%	0.53
Cc1ccc(F)c(S(=O)(=O)N2CCOc3nc(C)ccc32)c1	8%	-1.46
COC(=O)c1c(-c2ccc(C(=O)NC3CC(C)(C)NC(C)(C)C3)cc2)cnn1C	8%	-1.57
CCCc1noc(CCC(=O)N2CCCC[C@@H]2C)n1	-15%	1.54
COc1cc(NC(C)=O)c(C(=O)c2nccc3cc(OC)c(OC)cc23)cc1OC	6%	-0.69
CCn1cc(Br)cc1C(=O)N1CCNC[C@@H]1C	-8%	0.77
CC1(C)CN(Cc2noc(C3CC3)n2)CCO1	0%	-0.05
Cc1c(Cl)cncc1NC(=O)NC[C@H]1CCOC2(CCC2)C1	-8%	1.35
C[C@@H]1CN(C(=O)c2cccn(C)c2=O)CC[C@@]1(O)C1CCOCC1	-11%	1.8
CCn1nnc2c(N3CC(C(=O)NCc4cccnc4)C3)ncnc21	1%	-0.1
N#Cc1c(-c2ccccc2)c2c([nH]c1=O)CCCC2	-12%	1.6
Cc1cccc([C@H](CNC(=O)N(C)CCC2(O)CCCC2)N(C)C)c1	-14%	1.74
Cc1ccc(-c2csc(Nc3ccc(Cl)cn3)n2)o1	-4%	0.46
Cc1ccc(Oc2ccc(N[C@H]3CCc4ccc(F)cc43)cc2)nn1	-2%	0.26
Cn1c(-c2c(C(=O)N3CCOCC3)nc3ccccn23)nc2ccccc21	-5%	0.66
CC(C)C(=O)NC1CCN(c2nc(Cc3ccc(F)cc3)no2)CC1	36%	-1.54
O=C(NCCC1(O)CCOCC1)c1cc2n(n1)CCC2	-10%	1.41
Cc1c(CC(=O)N2CCN[C@H](C)C2)c2c(n1Cc1ccccc1)CCCC2=O	-4%	0.73
CCC[C@H]1CN(c2ncnc3ccsc23)C[C@@H]1N(C)C	-6%	1.14
